Measured values published in PubChem BioAssay AID504832 (National Center for Advancing Translational Sciences (NCATS), 2011).
Among all 310,000 compounds or so, about 18,000 (5.8%) were called active. Inconclusive results, whose numbers are uncertain, are shown with a selection of clear calls. Calls come from the whole dose curve; as a rule, active = well fitted inhibition curve with a large enough effect; inconclusive = small, poorly fitted or top-dose-only effect, or another doubt; inactive = no such curve, though single readings can be large or run the other way. Potencies of inconclusive entries are left out as doubtful fits.

experiment: Primary qHTS for delayed death inhibitors of the malarial parasite plastid, 48 hour incubation; details: P. falciparum luciferase growth in erythrocytes; series mostly up to 28.7 µM; activity change, negative = inhibition: at the top concentration
Summary of the method: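 Here the parasites carry a stable luciferase gene and grow inside erythrocytes in Albumax-based RPMI medium with compound for one erythrocytic cycle. Activity is scored as loss of luminescent signal.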
% is set by controls: 0 for no effect and ±100 for the full control effect; potency is the fitted concentration of half-maximal effect; tags give direction and shape of the fitted curve.

SMILES	Potency	activity change, negative = inhibition
O=C1OC/C(=C(/O)c2ccc(Cl)cc2)C1=O	active: 11.7 µM	
COc1cc2c(cc1OC)CC(=O)N(CCCN(C)C[C@H]1Cc3cc(OC)c(OC)cc31)CC2	inconclusive [inhibitor, single point]	
O=C(NCCCN1CCOCC1)c1ccc2c(c1)N(Cc1cccc(Cl)c1)C(=O)c1ccccc1S2=O (configuration not stated)	active: 11.7 µM	
CN(Cc1nc2ccccc2c(=O)[nH]1)C(=O)COc1ccccc1Cc1ccccc1	inconclusive [inhibitor, single point]	
COC(=O)c1cc2ccccc2c(-c2c(OC)c(C(=O)OC)cc3ccccc23)c1OC	inconclusive [inhibitor, partial curve]	
C=CCN(c1ccccc1)S(=O)(=O)c1cccc(C(=O)N2CC(C)CC(C)C2)c1 (configuration not stated)	inconclusive [inhibitor, partial curve, poor fit]	
NNC(=O)c1sc2cc(C(F)(F)F)cnc2c1-c1cccnc1	inconclusive [inhibitor, partial curve, poor fit]	
COCCOc1cc(N2C(=O)CSCC2=O)c(Cl)cc1Cl		inactive: 14.6%
COc1ccc(CCNC(=O)c2cc3sccc3n2C)cc1OC	inconclusive [inhibitor, partial curve]	
COc1ccc(N2CCN(CCCNC(=O)CCC(=O)N3CCOc4ccc(Cl)cc43)CC2)cc1	inconclusive [inhibitor, single point]	
COc1ccccc1N(C)S(=O)(=O)c1ccc(C)c(C(=O)NC(C)c2ccccn2)c1 (configuration not stated)	inconclusive [inhibitor, single point]	
C=CCn1c(NCc2cc(Cl)ccc2O)nc2ccccc21	inconclusive [inhibitor, partial curve]	
COc1cc2c(C(=O)NCc3ccccn3)cn(CC(C)C)c(=O)c2cc1OC		inactive: -8.64%
O=C(Cc1ccc(NC2=NC3CS(=O)(=O)CC3S2)cc1)NCc1ccccc1Cl (configuration not stated)		inactive: 4.3%
C=CCn1c(SCC(=O)Nc2ccc3c(c2)OCO3)nc2ccccc2c1=O	inconclusive [inhibitor, single point]	
CCCS(=O)(=O)N1CCCC(C(=O)NCCCN2CCN(c3cccc(Cl)c3)CC2)C1 (configuration not stated)		inactive: -6.3%
CCCCCCCCCCCCOCCOCCOCCOCCOCCOCCOCCOCCOCCO	inconclusive [inhibitor, single point]	
CCN(CC)C(=O)CSc1nc(N)c(C#N)c(-c2cccs2)c1C#N	inconclusive [inhibitor, single point]	
COc1cc(NC(=O)[C@H](C)NC(=O)N2CCn3c2nc2ccccc23)cc(OC)c1	inconclusive [inhibitor, single point]	
Cn1nc([N+](=O)[O-])c(C(C#N)c2ccccn2)c(Cl)c1=O (configuration not stated)	inconclusive [inhibitor, partial curve]	
CC(=O)c1c(C)oc2ccc(NS(=O)(=O)c3ccccc3)cc12		inactive: -5.13%

SMILES	Potency	activity change, negative = inhibition
CCOC(=O)C1=C(C)NC(=O)NC1c1ccc(NC(C)=O)cc1 (configuration not stated)		inactive: 5.83%
Cc1cc(C)cc(S(=O)(=O)c2cnc3ccccc3n2)c1	inconclusive [inhibitor, single point]	
CCN(CC(=O)Nc1c(C(=O)OC)[nH]c2ccccc12)c1ccc2c(c1)OCO2	active: 10.4 µM	
CCCC(C)C1(CC)C(=O)NC(=S)NC1=O (configuration not stated)	inconclusive [inhibitor, single point]	
OCCCCNCc1cc(Br)ccc1OCc1ccccc1		inactive: -42.8% [at 1.15 µM]
O=C(Nc1ccc(F)cc1)c1ccc(S(=O)(=O)NCC2CCCO2)cc1 (configuration not stated)	inconclusive [inhibitor, partial curve]	
COC(=O)C1=C(c2ccc3ccccc3c2)C[C@@H]2CC[C@H]1N2C(=O)NC1CC1	inconclusive [inhibitor, partial curve, poor fit]	
CCOc1ccc(S(=O)(=O)N2CCCCC2)cc1NC(=O)CN1C(=O)NC(C)(c2ccc(C)cc2)C1=O (configuration not stated)	active: 13.1 µM	
CCN(CCn1cccn1)C(=O)CC1C(=O)NCCN1Cc1cc(OC)cc(OC)c1 (configuration not stated)	inconclusive [inhibitor, partial curve, poor fit]	
Cc1ccc(NC(=O)CNc2ccccc2N2CCCC2=O)cc1S(=O)(=O)N1CCOCC1	inconclusive [inhibitor, single point]	
O=C(NCc1ccccn1)c1ccc(Cn2c(=S)[nH]c3ccccc3c2=O)cc1	inconclusive [inhibitor, full curve, poor fit]	
Cc1ccc(N(Cc2ccccc2)C(=O)c2cc(S(=O)(=O)N3CCOCC3)ccc2Cl)cc1	inconclusive [inhibitor, partial curve]	
Cc1ccccc1C(=O)Oc1ccc2ccc(O)cc2c1		inactive: 217%
COc1cccc(NC(=O)Nc2nc(-c3ccc(OC)c(OC)c3)cs2)c1	inconclusive [inhibitor, single point]	
O=C(CSc1cccc(C(F)(F)F)c1)N1CCN(S(=O)(=O)c2ccccc2)CC1	inconclusive [inhibitor, partial curve, poor fit]	
COc1ccc(CN2CCN(C(=O)c3ccc(S(=O)(=O)N4CCCCCC4)cc3)CC2)cc1	active: 10.4 µM	
COc1ccc(C(=O)N2CCN(S(=O)(=O)c3cc(Cl)ccc3OC)CC2)cc1		inactive: -27.2%
CN1CCN(/N=C/c2nc(-c3ccccc3Cl)n3ccccc23)CC1	inconclusive [inhibitor, single point]	
CCCn1ncc(CN2CCC(Cc3cccc(F)c3)(C(=O)OCC)CC2)c1C	inconclusive [inhibitor, single point]	
CN1CCN(C(=O)C2=C[C@H](c3ccc4c(c3)OCO4)C[C@H](OCc3ccc(CO)cc3)O2)CC1	inconclusive [inhibitor, partial curve, poor fit]	
NC(=O)NC(=O)CSc1nnc(-c2ccco2)n1Cc1ccccc1		inactive: 4.75%
